Experimental data taken from PubChem BioAssay AID1745853 (National Center for Advancing Translational Sciences (NCATS), 2022).
The other results are listed elsewhere or left out. Shown are side measurements of this screen, not its main read-out; they come without a call.

Key:
Experiment in all cases: Primary Screen for Target Class Profiling of Small Molecule Inhibitors of Methyltransferases
[1] = target: Glycine N-methyltransferase (Homo sapiens) (UniProt Q14749); details: purified enzyme, MTase-Glo SAH luminescence; measured here: GNMT inhibition; at 40 µM; stronger effect = lower value
Procedure, shortened: (§1)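 Each enzyme was assayed with SAM and its substrate. SAH formation detected by MTase-Glo luminescence; single-point 40 uM screen[…].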

[2] = target: Guanidinoacetate N-methyltransferase (Homo sapiens) (UniProt Q14353); details: purified enzyme, MTase-Glo SAH luminescence; measured here: GAMT inhibition; at 40 µM; stronger effect = lower value
Procedure, shortened: as §1

[3] = target: Histamine N-methyltransferase (Homo sapiens) (UniProt P50135); details: purified enzyme, MTase-Glo SAH luminescence; measured here: HNMT inhibition; at 40 µM; stronger effect = lower value
Procedure, shortened: as §1

[4] = target: Nicotinamide N-methyltransferase (Homo sapiens) (UniProt P40261); details: purified enzyme, MTase-Glo SAH luminescence; measured here: NNMT inhibition; at 40 µM; stronger effect = lower value
Procedure, shortened: as §1

[5] = target: Phenylethanolamine N-methyltransferase (Homo sapiens) (UniProt P11086); details: purified enzyme, MTase-Glo SAH luminescence; measured here: PNMT inhibition; at 40 µM; stronger effect = lower value
Procedure, shortened: as §1
On the % scale 0 is the no-effect control and ±100 the full control effect.

Structure (SMILES) | activity change, negative = inhibition [1] | activity change, negative = inhibition [2] | activity change, negative = inhibition [3] | activity change, negative = inhibition [4] | activity change, negative = inhibition [5]
CCCN1C(=O)c2c(C(=O)NCc3cccc(Br)c3)ncn2CC1(C)C(=O)NCCC(C)C (configuration not stated) | -2.3% | 1.38% | 1.34% | -10.1% | -5.04%
CC(=O)O[C@H]1C(=O)[C@@]2(C)[C@H]([C@H](OC(=O)c3ccccc3)[C@]3(O)C[C@H](OC(=O)[C@H](O)[C@@H](NC(=O)c4ccccc4)c4ccccc4)C(C)=C1C3(C)C)[C@]1(OC(C)=O)CO[C@@H]1C[C@@H]2O | 0% |  | 6.16% |  | 
COc1ccccc1CCNC(=O)CNC(=O)C1(C)Cn2c(cc3ccccc32)C(=O)N1C (configuration not stated) | -10% | 1.49% | -9.78% | -10.4% | -5.03%
Cc1cccc(NC(=O)CSc2nnc3n(Cc4ccccc4)c(=O)c4ccccc4n23)c1 | -6.09% | -4.91% | 1.75% | -6.83% | -6.47%
Cc1[nH]c(=O)c(C#N)cc1-c1ccc2nccn2c1 | -20.9% | -1.86% | -2.56% | -21.8% | -2.36%
Cc1ccc(CNC(=O)Nc2cnc3c(c2)CCC3)cc1 | -2.57% | -1.03% | -15.8% | -0.293% | 5.56%
COc1ccc(-c2cc3n(n2)CC(C)(C(=O)NCc2ccccc2)N(c2ccc(C)cc2)C3=O)cc1 (configuration not stated) | -3.27% | 4.95% | 0.705% | -1.03% | -1.69%
COc1cc(F)ccc1-c1nccc2c(=O)cc(-c3cnn(C)c3)oc12 | -10.9% | -6.35% | -12.5% | -28.4% | -3.4%
Cc1ccc(Nc2nc(C)cc3nn(CC(=O)Nc4ccc5c(c4)OCO5)c(=O)n23)cc1 | 11.1% | 0% | 9.48% | -1.95% | 5.09%
CC(C)NC(=O)c1ccc2c(=O)n(C(C)C)c3nn(CC(=O)NCc4ccccc4Cl)c(=O)n3c2c1 | 4.57% | 4.99% | 6.54% | -4.46% | 5.12%
CCC(C)NC(=O)c1ccc2c(=O)n(Cc3ccccc3)c3nn(Cc4ccc(Cl)cc4)c(=O)n3c2c1 (configuration not stated) | 4.17% | 0.788% | 2.41% | 1.67% | -1.9%
O=C(Cn1ccc2cc(S(=O)(=O)N3CCCCC3)ccc21)NCCc1ccco1 | 3.17% | 3.82% | 6.15% | 6.67% | 1.62%
COC(=O)c1ncn2c1C(=O)N(CCc1cccs1)C(C)(C(=O)NC1CCCCC1)C2 (configuration not stated) | -1.6% | 3.75% | -0.566% | 0.537% | -0.492%
CC(C)N[C@@H]1CO[C@H](CNC(=O)c2ccccc2)[C@H]1O | -0.606% | 0.761% | 2.36% | 4.65% | -9.65%
COc1ccccc1CNC(=O)C1(C)Cn2nc(-c3ccccc3)cc2C(=O)N1c1ccc(Cl)cc1 (configuration not stated) | 4.41% | 0% | 4.14% | 6.86% | 2.5%
NC1CONC1=O (configuration not stated) | 5.73% | 15.4% | 6.81% | -0.648% | 6.82%
CN(C)C[C@@H]1CN(S(C)(=O)=O)C[C@H]1NC(=O)c1ccc(Cl)s1 | 0.691% | -0.015% | 1.12% | -4.83% | 1.48%
COC(=O)C1=COC(OC2OC(CO)C(O)C(O)C2O)C2C(C)CC(=O)C12O (configuration not stated) | 2.71% | 4.37% | 9.59% | -8.8% | 2%
COc1ccccc1CNC(=O)C1c2c(n(C)c3ccccc23)SCC(=O)N1c1ccccc1OC (configuration not stated) | 4.34% | 1.39% | 1.74% | -0.731% | 3.01%
CC(=O)Nc1c2n(c3ccccc13)CC(C)(C(=O)NC1CCCC1)N(Cc1ccc(F)cc1)C2=O (configuration not stated) | -0.435% | 4.51% | 1.13% | 4.48% | 1.77%
CCC(C)NC(=O)c1ccc2c(=O)n(CC(C)C)c3nn(CC(=O)NCc4ccccc4)c(=O)n3c2c1 (configuration not stated) | 4.75% | 0% | 8.99% | 0.239% | -1.38%
CCc1ccc(N2C(=O)c3cc4occc4n3CC2(C)C(=O)NC2CCCCCCC2)cc1 (configuration not stated) | 0.352% | 0% | 11% | 8.91% | 2.84%
COc1cccc(CNC(=O)Cn2c(=O)oc3cc(S(=O)(=O)NCc4ccccc4)ccc32)c1 | 12.6% | 5.52% | 12.8% | 2.96% | 11%
COc1ccc(-c2ccccc2C(=O)N2CCCC2)nn1 | -2.48% | -3.09% | -2.34% | -4.78% | 2.74%
CN1CCN([C@H]2[C@@H]3OC[C@@H](O3)[C@@H](NCc3ccc(-c4ccccc4)cc3)[C@@H]2O)CC1 | -4.84% | -8.19% | -2.74% | -9.05% | -5.8%
CCCC1c2cccn2CCN1C(=O)Nc1ccc(Br)c(C)c1 (configuration not stated) | -7.03% | 3.15% | -33.4% | -11% | -3.01%
C=CCn1c(=O)c2ccc(C(=O)NC(C)CC)cc2n2c(=O)n(CC(=O)Nc3ccccc3F)nc12 (configuration not stated) | 3.95% | 0% | 3.1% | -2.37% | 4.13%
CCCNC(=O)C1C(c2ccc(NC(=O)c3ccco3)cc2)OC(=O)N1Cc1ccccc1 (configuration not stated) | -4.67% | -1.1% | -0.025% | -2.47% | -1.37%
CCN1CCCC1CNC(=O)Cn1ccc2cc(S(=O)(=O)N3CCCCC3)ccc21 (configuration not stated) | 7.09% | 0% | -15.3% | 1.18% | 3.3%
